# Test results as given in the supplement of paper PMC3334620.
# The full ranking holds about 33,000 sequences; the median of “E-score (-0.5 to 0.5)” is about -0.017, and the highest 2% start at about 0.3. This is one part of the list.
# Target: T1, Sut1 (UniProt P53032)
# T1 sequence: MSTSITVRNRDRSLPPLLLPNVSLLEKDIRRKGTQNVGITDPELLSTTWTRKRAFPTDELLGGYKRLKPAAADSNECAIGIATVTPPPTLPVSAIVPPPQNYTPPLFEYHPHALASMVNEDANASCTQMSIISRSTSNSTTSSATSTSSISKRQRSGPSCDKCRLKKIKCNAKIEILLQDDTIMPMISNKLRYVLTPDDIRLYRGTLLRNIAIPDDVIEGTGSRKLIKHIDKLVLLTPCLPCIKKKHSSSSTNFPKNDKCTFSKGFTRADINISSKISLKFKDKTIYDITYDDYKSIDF
# Assay: PBM E-score (8-mer binding enrichment) (E-score (-0.5 to 0.5)); higher = stronger / more preferred TF binding; most listed sequences are background and not binding sites
# Conditions: protein concentration: 200 nM; construct: GST-full length
# Outline: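 Each ungapped eight-base word and its reverse complement, pooled, received an E-score from the Universal PBM Analysis Suite. Underlying scans, normalised with masliner, recorded fluorescent anti-GST bound to GST-tagged yeast transcription factors. These were applied at about 100-200 nM to universal all-10-mer Agilent arrays double-stranded by primer extension.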
row,Sequence,PBM E-score
1,GCGCTTAC,-0.0907
2,AACAACAT,0.0759
3,AGTGTAGG,-0.00484
4,TGCGGACA,0.242
5,GGGCTACA,-0.103
6,ACTCAAGT,0.149
7,GACATAAC,0.247
8,AGATTTTG,0.131
9,CACAGAGC,-0.106
10,CACGTGCA,-0.192
11,CTTAGCAA,0.0902
12,GAAATTCA,0.21
13,ACTGATTC,0.00576
14,AGCTTAAA,0.0829
15,CGGTAAGC,-0.064
16,AACCTATG,-0.0822
17,GTCGCGAC,0.278
18,CCGCAAGC,-0.238
19,GCTTCAAA,0.117
20,GGACCTCA,0.0263
21,ATGAGGGC,-0.17
22,ACAAAGGC,-0.0842
23,AATGTGCG,0.109
24,AGAACATC,0.0303
25,CTAACTTC,0.0929

row,Sequence,PBM E-score
1,GGCACTGA,-0.201
2,AGCTTCTG,-0.078
3,AACGTGCC,-0.151
4,CGTATTTA,0.201
5,CAGGGCCC,-0.189
6,ACTCTCAA,0.0103
7,AGGCTACA,-0.151
8,CGATCAGC,-0.098
9,AAGGTTAG,-0.0668
10,AGATCCCG,0.0988
11,GGCCAGTA,-0.139
12,CTGTTAAC,0.149
13,CACCTCTA,-0.0969
14,CCAGCACC,-0.282
15,CCTTACCA,-0.117
16,ACCACCCC,-0.238
17,AATGTTAT,0.214
18,ACTTAAAG,-0.0784
19,CGGCTTGA,-0.117
20,TAAACAAA,0.168
21,CAACGCCC,-0.206
22,ATCGCGTG,0.00063
23,CAATACAG,0.0637
24,CCGACAGG,-0.0152
25,CTACAATC,0.157

row,Sequence,PBM E-score
1,CGGATATA,0.288
2,CTTTGGAA,0.141
3,CCTTAATC,-0.0331
4,CGCTGCTC,-0.258
5,AAATTCGC,0.193
6,ACTCCCAG,-0.142
7,ACAGGAGA,-0.137
8,CATCCGAC,0.122
9,ACAGGATG,0.00239
10,TGGGAGAA,-0.07
11,ACATCCGC,0.0472
12,ATCAGCCG,0.0393
13,GTGTTGCA,0.043
14,AGCCCTAC,-0.227
15,CTATTAAC,0.154
16,CAATAGCG,-0.115
17,ATAAGGAA,-0.055
18,GGGATTAA,0.0807
19,AGAAATCT,0.143
20,GACATGCC,0.00578
21,GTCATCTA,-0.0917
22,ATTTTCGG,0.345
23,TTATACAA,0.326
24,ATTGACTG,-0.1
25,CATCTCCA,-0.036

row,Sequence,PBM E-score
1,CCGGGACG,-0.00588
2,ACACATTG,0.114
3,CGCTGTAA,0.00093
4,ACGAACAT,0.2
5,CTTCTGGA,-0.0307
6,AGAATTCA,0.115
7,ACTGCAGT,-0.107
8,TGCTTCCA,-0.138
9,AGGGCCAG,-0.213
10,ACTCCCAT,-0.0456
11,GGCCTCCC,-0.322
12,GGAACTTA,-0.0324
13,AGACATGA,-0.141
14,GCTTCTGA,-0.0112
15,GCTACGCA,-0.141
16,ATTCACAC,0.0223
17,AAGAGCGT,-0.00268
18,GTGAGCAA,-0.183
19,GCGATGCC,-0.224
20,CCCCTCAC,-0.228
21,GAGTCAGC,-0.189
22,CCTAGGAC,-0.224
23,ACAAATCG,0.0158
24,AAGATAGG,0.013
25,AAGGCCCG,-0.201

row,Sequence,PBM E-score
1,ATTGGGGC,-0.226
2,AGCATATG,-0.0707
3,CTTATCGA,0.111
4,TAAACCCA,0.0439
5,CATGAGGC,-0.229
6,GTCTATAA,0.161
7,ACACTATA,0.217
8,AGCTCCAT,-0.0409
9,GGTATATA,0.263
10,AGATAGAA,0.2
11,ATCAACAG,0.0277
12,ACAGGGAC,-0.102
13,CTCCGTGC,0.321
14,CAAATTTA,0.205
15,CATGCGAC,-0.151
16,GAGCACAA,0.0285
17,ACTCGTCC,-0.0531
18,CCGCCGCC,-0.0283
19,AATTGGAG,-0.104
20,GCAAGCAA,-0.0317
21,GATCGTGC,-0.0302
22,CTTCGAAG,0.119
23,CACCAGAC,-0.112
24,GAAAAGCA,0.0823
25,GCACTGGC,-0.285

row,Sequence,PBM E-score
1,AACGGTAG,-0.151
2,ATGCTTAC,-0.279
3,CCACCGCA,-0.0617
4,TACATTCA,0.124
5,CCCGCGCA,-0.168
6,TGACGACA,0.0169
7,GGTTTTAC,-0.289
8,CCTTCCGA,0.134
9,TACAGACA,0.216
10,AGTTTCAT,0.199
11,CCCCTACA,-0.308
12,ACGCAAAA,0.0234
13,GCAGCATA,-0.22
14,CGCCTCGA,0.00442
15,ATCCTCAG,-0.00968
16,AACAAAGC,0.192
17,AAGGAAGT,0.213
18,ATCTTGTG,-0.0216
19,CCCCGGCC,-0.173
20,CATAACCG,0.0105
21,ACGCGAGG,-0.184
22,AAGCGGTA,0.0984
23,CCTCTATC,-0.17
24,AGTGTCAT,0.0512
25,AAGATAAA,0.199

row,Sequence,PBM E-score
1,CTCATCAG,0.076
2,GCTTCACC,-0.0264
3,TCTCCCAA,-0.0834
4,ATGTTTAG,0.0163
5,AGGATTTA,0.165
6,AGGACCGA,0.0169
7,CAGCGTGA,-0.169
8,GACGAAAC,0.054
9,ACATTCCC,0.046
10,ATACCCAC,-0.14
11,ATTCGACG,-0.035
12,AGTGTGGA,0.0491
13,TATTCAAA,0.212
14,AGGTTTGC,-0.0806
15,ACTATGGC,-0.0581
16,GGTGCGCA,-0.116
17,GCGCGCGA,-0.0696
18,ACAGATGT,-0.0948
19,AGTCGACT,0.246
20,ACTTGGAG,-0.075
21,ACTGAACC,0.0393
22,CTGATGTC,0.0719
